Results on 172 sequences are retold here after paper PMC6212790.

This is one part of the list. At the low end of the ranking the order means little.

For the experiment, the target named is T1, GST-Rok-C97-191 (UniProt O34857).
T1 sequence: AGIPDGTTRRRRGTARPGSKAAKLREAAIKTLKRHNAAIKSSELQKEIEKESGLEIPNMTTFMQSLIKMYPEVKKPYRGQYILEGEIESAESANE
The experiment can be described thus: protein binding microarray.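 Also: rank score from −0.5 (least bound) to 0.5 (best bound).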 The following applies: Rok is a gene silencer of Bacillus subtilis; high values mean tight binding; most listed sequences are background and not binding sites; double strand, one strand shown.
AGCATCAG: the binding signal is -0.0279 E-score.

In turn, CATCATGG yielded a binding signal of 0.00052 E-score. For TCAAAGAA, the binding signal worked out at 0.103 E-score.

In turn, AAACACGA came in with a binding signal of 0.046 E-score.

GGTCTTAC showed a binding signal of -0.141 E-score. As to CAGCTCGC, the binding signal is -0.253 E-score. GACACACC showed a binding signal of -0.203 E-score. Sequence GCTTTACC gave a binding signal of -0.0281 E-score.

Sequence AGCAGAAG came in with a binding signal of -0.0574 E-score.

On to TGCCAGCA, for which the binding signal worked out at 0.171 E-score. Take AGCCATGC: the binding signal was -0.149 E-score. Consider CGGCCGTA, for which the binding signal amounted to 0.0354 E-score. Sequence ACAGAGTG showed a binding signal of -0.0464 E-score. The sequence CGGGCTTC displayed a binding signal of -0.0782 E-score.

For the sequence CGGGGAAC, the binding signal was -0.157 E-score. The sequence GGGCCCGA displayed a binding signal of -0.0395 E-score. ATTCCCGA returned a binding signal of -0.00573 E-score.

ATAAATTA gave a binding signal of 0.259 E-score. Consider GACGCCTC, for which the binding signal was -0.305 E-score. For the sequence GCTGTGTA, the binding signal stood at 0.121 E-score. In turn, ACCTGATG came in with a binding signal of 0.117 E-score. Then CAACAGCG, with -0.182 E-score.

CGTTGATC gave a binding signal of -0.0737 E-score.

CATACTAA returned a binding signal of 0.0976 E-score. In the case of AAGCACCG, the binding signal was -0.194 E-score.

Regarding ACCACGTA, the binding signal stood at 0.0886 E-score. ACGGCCAC gave a binding signal of -0.32 E-score. In the case of ACACTCGA, the binding signal is -0.0861 E-score. AAAATCGT showed a binding signal of 0.0993 E-score. As for GCCATGTA, the binding signal is 0.0684 E-score.

Sequence AATGCACG came in with a binding signal of -0.0574 E-score. The sequence ATTCAACA came in with a binding signal of 0.113 E-score. GGCCGGAC showed a binding signal of -0.234 E-score.

Consider CAGGCTGA, for which the binding signal was -0.0825 E-score. In turn, AGTTGTCG came in with a binding signal of 0.154 E-score. In the case of CAACGTCG, the binding signal is -0.0086 E-score. Regarding CAGATTTA, the binding signal was found to be 0.148 E-score. To CGCGACAG belongs -0.119 E-score; to ACACTCGG, 0.0662 E-score. Then ATAAGACG, with -0.00614 E-score; and CCAGATTC, with 0.0227 E-score.

For the sequence CGACTGTA, the binding signal was found to be 0.0686 E-score. The sequence CATTTGGA returned a binding signal of -0.0727 E-score.

GCTTTCAC registered a binding signal of -0.0304 E-score. Then AGTGTTCC, with -0.0573 E-score; and AAAGAGCG, with -0.142 E-score; and ACAACCTG, with -0.0489 E-score. Turning to ACTTCGTG, the binding signal is -0.124 E-score.

In turn, GACCGTGA had a binding signal of -0.197 E-score. CGCGTGAG: the binding signal is -0.155 E-score. As for TTACAAAA, the binding signal was -0.0374 E-score. Consider TAGCTTCA, for which the binding signal turned out to be 0.143 E-score. Turning to GACATTAA, the binding signal came to 0.0648 E-score. On to CGGCGCCG, for which the binding signal is -0.317 E-score. For the sequence CAAAGACG, the binding signal was -0.134 E-score.

Sequence ATCTTGAC displayed a binding signal of -0.167 E-score. For the sequence AACCCCCG, the binding signal is -0.25 E-score.

Take ATAGCCGC: the binding signal was -0.0394 E-score. Consider AGAACGTA, for which the binding signal is 0.0866 E-score. Sequence AACAATGA registered a binding signal of 0.0026 E-score. As to AGGTTATA, the binding signal stood at 0.0285 E-score. ATCACAAA displayed a binding signal of 0.216 E-score. Consider GAGGGAGC, for which the binding signal is -0.336 E-score. On to ACTCCGGA, for which the binding signal is -0.0255 E-score. Then ACGGACGT, with -0.0675 E-score.

As for CGGTGACG, the binding signal is -0.113 E-score.

AGGTCGGC showed a binding signal of -0.279 E-score. Take GTATTAAA: the binding signal was determined as 0.158 E-score. Regarding AGTTCGCC, the binding signal came to 0.000411 E-score.

As for CCAGTGCC, the binding signal is -0.17 E-score. Then AGTAACAG, with 0.186 E-score. In turn, CTGCAGTA had a binding signal of 0.0959 E-score. On to AGACTTGA, for which the binding signal is -0.281 E-score. Then CCGTGTAA, with 0.0352 E-score; and CGAAGTTC, with 0.0766 E-score. In turn, CGTGAAAC showed a binding signal of -0.149 E-score. GGAGAGGA had a binding signal of -0.171 E-score. To CAAGCCGG belongs -0.0919 E-score; to ACCGACGT, -0.119 E-score; to ACGCCCGG, -0.295 E-score. In turn, AAAACGTA gave a binding signal of 0.139 E-score. GGGATCCC: the binding signal was -0.33 E-score. CACAACCC: the binding signal was -0.14 E-score. The sequence CAGGATTC yielded a binding signal of -0.00781 E-score.

AAATTCCT yielded a binding signal of 0.0295 E-score.

CATTCCAC registered a binding signal of -0.157 E-score. Take AGTTTGCC: the binding signal was found to be 0.113 E-score. The sequence AACGAGTA displayed a binding signal of 0.0553 E-score.

In turn, ACGTGTAT registered a binding signal of 0.181 E-score. Then ATAGCCAT, with -0.193 E-score; and ACAGTCAA, with -0.00757 E-score. Sequence AGGGCGCG registered a binding signal of -0.314 E-score. With AGAGGGTG, the binding signal was -0.298 E-score.

Turning to ACATAAAC, the binding signal came out at 0.146 E-score. To ACCGGCTC belongs -0.289 E-score; to CGTATCAC, 0.0328 E-score; to GATCCACC, -0.0485 E-score.

For AATGCTGA, the binding signal turned out to be 0.0552 E-score. For CTCTTAGC, the binding signal is -0.00517 E-score. As for CATATTAA, the binding signal was 0.194 E-score.

AGTACACG had a binding signal of 0.055 E-score.

For CTTAGGCA, the binding signal is -0.0879 E-score. Regarding CTCAGCAA, the binding signal was 0.126 E-score. The sequence AAACGGAA showed a binding signal of 0.0521 E-score. Take CATTTGTC: the binding signal turned out to be 0.0421 E-score. Take GACCCCCA: the binding signal was -0.24 E-score. Sequence ATGCATGG registered a binding signal of -0.0816 E-score. To TATTTGGA belongs -0.063 E-score. Sequence AGATCCTA had a binding signal of 0.2 E-score. GAGCCCGA returned a binding signal of -0.211 E-score.

In the case of ACGGGGAG, the binding signal was -0.228 E-score. To GCATAGGA belongs 0.0839 E-score.

For the sequence GGGACTGA, the binding signal is -0.159 E-score.

In turn, AAACGACT had a binding signal of -0.00744 E-score. GGACCCCC: the binding signal is -0.381 E-score. AGTATGCG: the binding signal was determined as 0.178 E-score.

CACAGATC: the binding signal was -0.114 E-score. For the sequence TAGCAGGA, the binding signal is -0.0409 E-score.

GACGTTAA: the binding signal is -0.0315 E-score. On to TCGGTTAA, for which the binding signal came to 0.145 E-score.

For the sequence CTATACCA, the binding signal is 0.201 E-score. AAATGTCA came in with a binding signal of 0.174 E-score. Then CAGAGAGA, with -0.071 E-score. Then GGAGCGTA, with -0.111 E-score.

With CGGAGATC, the binding signal was -0.121 E-score. Take CAGTGTCA: the binding signal was -0.0837 E-score.

The sequence CCCGTTCG returned a binding signal of -0.103 E-score. As to AACTAGGG, the binding signal was -0.0014 E-score. For the sequence CGACTTGC, the binding signal was -0.000418 E-score. As for GGGTTCTA, the binding signal is -0.209 E-score. GTTTGTTA came in with a binding signal of 0.13 E-score. Consider CTTTTTGA, for which the binding signal was -0.169 E-score. Then CTGGTAAA, with 0.213 E-score; and GATGACCC, with -0.1 E-score. To ACTAGCCG belongs 0.0929 E-score. AACCCGAA displayed a binding signal of -0.025 E-score. To CATCGTTC belongs -0.12 E-score; to ACGGTTAG, 0.0379 E-score.

Sequence GCAAGGCA had a binding signal of -0.144 E-score.

Take AGACCGAT: the binding signal amounted to 0.00269 E-score. Turning to AACAGAGA, the binding signal was -0.109 E-score. Sequence GTAAGGAC came in with a binding signal of 0.00285 E-score. As to AGCCGGCC, the binding signal is -0.197 E-score. On to CACGACGC, for which the binding signal is -0.112 E-score. Then CTGACTGC, with -0.111 E-score; and ACTGCGCT, with -0.118 E-score. In the case of CGGCGTGA, the binding signal is -0.241 E-score.

Regarding GGTTAGAA, the binding signal is 0.0886 E-score. In the case of AGAACCTG, the binding signal is -0.0905 E-score.

The sequence AGCACCGA came in with a binding signal of -0.119 E-score. Turning to CAAGCTAA, the binding signal was -0.0479 E-score. To CTAATTCC belongs 0.159 E-score. For GTCGGAGA, the binding signal was -0.381 E-score. Take CCTGGTGC: the binding signal is -0.137 E-score. As for ACGCAAGA, the binding signal came out at 0.0168 E-score. Then CAGCGAAC, with -0.14 E-score. The sequence AAACGGGA had a binding signal of -0.108 E-score. To AAGGTGGT belongs -0.104 E-score; to CACCGCCA, -0.201 E-score. Sequence AATTGGCT registered a binding signal of 0.106 E-score.

With CTAGTCCA, the binding signal is 0.107 E-score.

In turn, TAGTCACA showed a binding signal of 0.123 E-score.

Regarding ACTATGAG, the binding signal is -0.0649 E-score. To AGGCACCG belongs -0.232 E-score. The sequence CCAAGCGA had a binding signal of -0.195 E-score. For the sequence CGGAGAAG, the binding signal is -0.176 E-score. For the sequence AACTGATC, the binding signal is 0.044 E-score.

In the case of CGCCTCAG, the binding signal was -0.214 E-score. To ACTCTTAG belongs 0.131 E-score; to CGAGGACA, -0.193 E-score; to GCGTTCAA, -0.08 E-score. CTGCGCCC showed a binding signal of -0.144 E-score.
